Data reported in the RNAGym collection of RNA variant scans (doi:10.1073/pnas.2313332121).
Variants at the floor of the assay are shown more often than the library holds them.

B1: TPR 5TU (parent)
chain: GGAUCUUCUCGAUCUAACAAAAAAGACAAAUCUGCCACAAAGCUUGAGAGCAUCUUCGGAUGCAGAGGCGGCAGCCUUCGGUGGCGCGAUAGCGCCAACGUUCUCAACUAUGACACGCAAAACGCGUGCUCCGUUGAAUGGAGUUUAUCAUG

Variants of: B1
Assay: polymerase ribozyme fitness, log enrichment relative to wild type (log ratio); higher = more active; in vitro selection for triplet polymerase activity
How it was run: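 Mutant libraries were PCR-built and transcribed for each subunit of a heterodimeric triplet polymerase ribozyme and selected for one round in triplicate at −7 °C, frozen, before gel excision of extended constructs and streptavidin-bead capture. Input and output libraries were Illumina-sequenced, keeping genotypes with ≥10 input reads and ≥1 read per output. Fitness is a logarithmic ratio of genotype to wild-type enrichment, in base 2, using inverse-variance-weighted replicate averages.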

**Q.** With GGAUCUUCUCGAUCUAACGAAAAAGACAAAUCUGCCACAAAGCUUGAGAGCAUCUUCGGAUGCAGAGGCGGCAGCCUUCGGUGGCGCGAUAGCGCCAUCGUUCUCAACUAUGACUCGCAUAACGCGUGCUCCGUUGAAUGGAGUUUAUCAUG [A19G A98U A115U A120U] as the variant, how does the “polymerase ribozyme fitness (log ratio)” value read?
**A.** -2.62

**Q.** With GGAUCUUCUCGAUCUAACGAAAAAGAGAAAUCUGCCACAAAGCUUGAGAGCUUCUUCGGAUGCAGAGGCGUCAGCCUUCAGUGACGCGAUAGCGCCAACGUUCUCAACUAUGACACGAAAAACGCGUGCUCCGUUGAAUGGAGUUUAUCAUG [A19G C27G A52U G71U G80A G84A C118A] as the variant, how does the “polymerase ribozyme fitness (log ratio)” value read?
**A.** ≤ -4.2

**Q.** For GGAUCUUCUCGAUCUAACGAAAAAGACAAAUAUGCCACACAGCUUGAGAGCAUCUUCGGAAGCAGAGGCGGCAGCCUUCGGUGGCGCGAUAGGGCCAACGUUCUCAACUGUGACACGCAAAACGCGUGCUCCGUUGAAUGGAGUUUAUCAUG [A19G C32A A40C U61A C93G A110G], which “polymerase ribozyme fitness (log ratio)” value is on record?
**A.** ≤ -4.2

**Q.** For GGAUCUUCUCGAUCUAACGAAAAAGACAAAUCUGACACAAACCUUGAGAGCAUCUUCGGAUGCAGAGCCGGCAGCCUUCGGUGGCGCGAUAACGCCAACGUUCUCAACUAUGACACGCAAAACGCGUGCUCCGUUGAAUGGAGUUUAUCAUG [A19G C35A G42C G68C G92A], which “polymerase ribozyme fitness (log ratio)” value is on record?
**A.** ≤ -4.2

**Q.** For GGAUCUUCUCGAUCUAACGAAAAAGACAAAUCUGACACAAAGCUUGAGAGCAUCUAGGGAUGCAGAGGCGGCAGCCUUAGGUGGCGCGAUAGCGCCAACGUUCUCAACUAUGACACGCAAAACGCGUGCUCCGUUGAAUGGAGUUUAUCAUG [A19G C35A U56A C57G C79A], which “polymerase ribozyme fitness (log ratio)” value is on record?
**A.** ≤ -4.2

**Q.** Which “polymerase ribozyme fitness (log ratio)” value does the source give for GGAUCUUCUCGAUCUAACGAAAAAGACAAAUCUGUCACAAAGCUUGAGAGCAUCUUCGGAUGCAGAGGCCGCAGCCUUCGGUGGCGCGAUCGCGCCAACUUUCUCAACUAUGGCACGCAAAACCCGUGCUCCGUUGACUGGAGUUUAUCAUG [A19G C35U G70C A91C G100U A113G G124C A138C] here?
**A.** ≤ -4.2

**Q.** Which “polymerase ribozyme fitness (log ratio)” value does the source give for GGAUCUUCUCGAUCUAACGAAAAAGACAAAUCUGUCACAAAGCUUGAGAGCAUCUUCGGAUGCAGAGGCGGCAGCCUUCGGUGGCGCGAUAGCGCCAACGUUCUCAACUAUGACACGCAAAACGCGGGCUCCCUUGAAUGGAGUUUAUCAUG [A19G C35U U127G G133C] here?
**A.** ≤ -4.2

**Q.** For GGAUCUUCUCGAUCUAACGAAAAAGACAAAUCUGCCAUAAAGCUUGAGAACAUCUUCGGAUGCAGAGGCGGCAGCCUUCGGUGGCACGAUAGCGCCAACGUUCUAAACUAUGACAAGCAAUACGCGUGCUCCGUUGAAUGCAGUUUAUCAUG [A19G C38U G50A G86A C105A C116A A121U G141C], which “polymerase ribozyme fitness (log ratio)” value is on record?
**A.** ≤ -4.2

**Q.** For GGAUCUUCUCGAUCUAACGAAAAAGACAAAUCUGCCACAAAGGUUGAGAGGAUCUUCGGAUGCAGAGACGGCAGCCUUCAGUGGCGCGAUAGCGCCAACGUUCUCAACUAUGACACGCAAAACGCGUGCUCCGUUGAAUGGAGUUUAUCAUG [A19G C43G C51G G68A G80A], which “polymerase ribozyme fitness (log ratio)” value is on record?
**A.** ≤ -4.2

**Q.** Which “polymerase ribozyme fitness (log ratio)” value does the source give for GGAUCUUCUCGAUCUAACGAAAAAGACAAAUCUGCCACAAAGCUUGAGAGCAUUUUUGCCUGCAGAGGCGGCAGCCUUCGGUUGCGCGAUAGCGCCGACGUUCUCAAUUAUGACACGCAUAACGCGUGCUCCGUUGAAUGGAGUUUAUCAUG [A19G C54U C57U G59C A60C G83U A97G C108U A120U] here?
**A.** ≤ -4.2

**Q.** Which “polymerase ribozyme fitness (log ratio)” value does the source give for GGAUCUUCUCGAUCUAACGAAAAAGACAAAUCUGCCACAAAGCUUGAGAGCAUCUUGUGAUCCAGAGGCGGCAGCCUUCGGUGGCGUCAUAGCGCCAACGUUCUCAACUAUGACACGCAAAACGCGUGCUCCGUUGAAUGGCGUUUAUCAUG [A19G C57G G58U G62C C87U G88C A142C] here?
**A.** ≤ -4.2

**Q.** Which “polymerase ribozyme fitness (log ratio)” value does the source give for GGAUCUUCUCGAUCUAACGAAAAAGACAAAUCUGCCACAAAGCUUGAGAGCAUCUUCGGAUGCAGAGGCGGCAGCGUUCGGUGGCGCGUUGGCGCCAACGUUCUCAACUAUGACACGCAAAACGCGUGCUCCGAUGAAUGGAGUUUAUCAUG [A19G C76G A89U A91G U134A] here?
**A.** ≤ -4.2

**Q.** Which “polymerase ribozyme fitness (log ratio)” value does the source give for GGAUCUUCUCGAUCUAACGAAAAAGACAAAUCUGCCACAAAGCUUGAGAGCAUCUUCGGAUGCAGAGGCGGCAGCCUUCGGUGGCGCGAUAGAGCCAACGUUCUCAACUAUGACACGCAAAACGCGUGCUCCGUUGAAUGGAGUUUAUCAUG [A19G C93A] here?
**A.** -3.43

**Q.** For GGAUCUUCUCGAUCUAACGAAAAAGACAAAUCUGCCACAAAGCUUGAGAGCAUCUUCGGAUGCAGAGGCGGCAGCCUUCGGUGGCGCGAUAGAGCCAACGUUCUCAACUAUGACACGCAAAACGCGUGCUCCGUUGAAUAGAGUUUAUCAUG [A19G C93A G140A], which “polymerase ribozyme fitness (log ratio)” value is on record?
**A.** ≤ -4.2

**Q.** With GGAUCUUCUCGAUCUAACGAAAAAAACAAAUCUGCCACAAAGCUUGAGCGCAUCUUUGGAUGUAGAGGCGGCAGCCUUCGGUGGCGCGAUAGAGCCUACGUUCUCAACUAUGACACGGAAAACGCGUGCUCCGUUGAAAGGAGUUUAUCAUG [A19G G25A A49C C57U C63U C93A A97U C118G U139A] as the variant, how does the “polymerase ribozyme fitness (log ratio)” value read?
**A.** ≤ -4.2

**Q.** Which “polymerase ribozyme fitness (log ratio)” value does the source give for GGAUCUUCUCGAUCUAACGAAAAAUACAAAUCUGCCACAAAGCUUGAGAGCAUCUUCGGAUGCAGAGGCGGCAGCCUUCGGUGGCGCGAUAGCGCCAACGUUCUCAACUUUGACACGCAAAACGCGUGCUCCGUUGAAUGGAGUUUAUCAUG [A19G G25U A110U] here?
**A.** ≤ -4.2

**Q.** With GGAUCUUCUCGAUCUAACGAAAAAGACAAAUCUUCCACAAAGCUUGAGAGCAUCUACGGAUGCAGAGGCAGCAGCCUUCGGUGGCGCGAUAGCGCCAACGUUCUCAACUAUGACACGCAAAACGCGUGCUCCGAUGAAUGGAGUUUAUCAUG [A19G G34U U56A G70A U134A] as the variant, how does the “polymerase ribozyme fitness (log ratio)” value read?
**A.** ≤ -4.2

**Q.** For GGAUCUUCUCGAUCUAACGAAAAAGACAAAUCUGCCACAAAGCUUGAGAGCAUCUUCGUAUGCAGAGGCGGCAGCCUUCGGUGGCGCGAUAGCGCCAACGUUCUCAACUAUGACACGCAAAACGCGUGCUCCGUUGAAUGGAGUUUAUCAUG [A19G G59U], which “polymerase ribozyme fitness (log ratio)” value is on record?
**A.** -0.93

**Q.** Which “polymerase ribozyme fitness (log ratio)” value does the source give for GGAUCUUCUCGAUCUAACGAAAAAGACAAAUCUGCCACAAAGCUUGAGAGCAUCUUCGGAUGCAGAGCCGGCAGCCUUCGGUGGCGCGGUAGCGCCAACGUUCUCAAUUAUGAUACGCAAAACGCGUGCUCCGUUGAAUGGAGUUUAUCGUG [A19G G68C A89G C108U C114U A150G] here?
**A.** ≤ -4.2
